Measurements published in paper PMC4336329 (PLoS ONE, 2015).
About 14,000 (4.5%) of roughly 310,000 compounds showed an effect of 50% or more. The effect is printed as a negative number. The list shows a part of the results.

biological target: human ether-à-go-go-related gene (hERG) potassium channel (human, UniProt Q12809); assay: primary screen, population patch clamp on CHO cells stably expressing hERG
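Note: peak tail current of the secondary pulse compared with the same well before compound.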

Sequence of human ether-à-go-go-related gene (hERG) potassium channel (Q12809 whole entry, looked up): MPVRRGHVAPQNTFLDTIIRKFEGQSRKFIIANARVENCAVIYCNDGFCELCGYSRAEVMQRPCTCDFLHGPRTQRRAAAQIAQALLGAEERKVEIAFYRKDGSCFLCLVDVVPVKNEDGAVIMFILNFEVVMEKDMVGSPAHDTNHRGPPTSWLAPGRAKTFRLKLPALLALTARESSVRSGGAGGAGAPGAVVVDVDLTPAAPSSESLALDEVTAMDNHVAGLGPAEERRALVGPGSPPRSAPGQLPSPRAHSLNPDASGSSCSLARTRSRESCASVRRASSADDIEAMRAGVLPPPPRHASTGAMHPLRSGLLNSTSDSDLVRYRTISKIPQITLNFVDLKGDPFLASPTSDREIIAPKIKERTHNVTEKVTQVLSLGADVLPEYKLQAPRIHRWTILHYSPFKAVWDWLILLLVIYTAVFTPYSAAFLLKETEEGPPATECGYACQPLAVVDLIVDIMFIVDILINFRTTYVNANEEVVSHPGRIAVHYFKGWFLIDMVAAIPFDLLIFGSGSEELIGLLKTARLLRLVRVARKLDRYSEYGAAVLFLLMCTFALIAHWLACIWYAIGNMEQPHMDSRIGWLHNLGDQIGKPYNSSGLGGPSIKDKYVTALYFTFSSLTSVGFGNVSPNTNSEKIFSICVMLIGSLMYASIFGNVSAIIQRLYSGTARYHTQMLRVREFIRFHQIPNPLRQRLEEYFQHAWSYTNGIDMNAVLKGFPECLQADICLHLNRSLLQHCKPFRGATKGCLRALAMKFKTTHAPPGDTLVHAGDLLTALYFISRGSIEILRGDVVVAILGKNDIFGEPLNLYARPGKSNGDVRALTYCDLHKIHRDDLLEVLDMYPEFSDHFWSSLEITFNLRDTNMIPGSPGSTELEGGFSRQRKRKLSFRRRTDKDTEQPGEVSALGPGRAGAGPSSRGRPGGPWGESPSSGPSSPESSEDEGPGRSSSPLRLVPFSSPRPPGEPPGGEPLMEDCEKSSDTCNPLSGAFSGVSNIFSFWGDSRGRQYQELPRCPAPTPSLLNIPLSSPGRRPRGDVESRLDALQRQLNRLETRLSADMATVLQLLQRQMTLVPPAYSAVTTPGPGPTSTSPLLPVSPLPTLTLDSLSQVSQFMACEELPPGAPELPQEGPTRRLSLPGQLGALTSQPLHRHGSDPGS

Compared with `Cc1cc(C)cc(Oc2ccc(N)cc2)c1`, `Cc1cccc(OC(=O)c2ccc3nccnc3c2)c1` is higher in “hERG current change (%, negative = inhibition) at 10uM” value: -15.1% for the first, -2.41% for the second.

Compared with `Nc1ccc(CCNc2ncnc3c2ncn3[C@@H]2O[C@H](CO)[C@@H](O)[C@H]2O)cc1`, `CCc1ccc(OCCCC(=O)NCc2ccco2)cc1` is lower in “hERG current change (%, negative = inhibition) at 10uM” value: 13.3% for the first, 1.95% for the second.

First: Cc1onc(-c2ccccc2)c1C(=O)Nc1c(C)n(C)n(-c2ccccc2)c1=O
Second: O=C1CC(=Nc2ccccc2)NN1c1ccccc1
The “hERG current change (%, negative = inhibition) at 10uM” value of the first is lower: 11.7% for the first, 23.1% for the second.

Going from `CN(C)S(=O)(=O)c1cccc(NC(=O)c2cc3c(cc2Cl)N2CCCCCC2=NS3(=O)=O)c1` to `Cc1nnc(NC(=O)C2CCN(S(=O)(=O)c3cc([N+](=O)[O-])ccc3Cl)CC2)o1`, the “hERG current change (%, negative = inhibition) at 10uM” value falls from 5.64% to -12.8%.

Going from `COC(=O)C1=C(C)N(c2ccc(OC)cc2)C(C)=C(C(=O)OC)C1c1ccccc1` to `COc1ccc(NC(=O)COC(=O)CCc2ccccc2)c(OC)c1`, the “hERG current change (%, negative = inhibition) at 10uM” value rises from 4.58% to 10.6%.

First: Cc1noc(NS(=O)(=O)c2ccc(N/C=C/C(=O)c3ccc(F)cc3)cc2)c1C
Second: O=C(/C=C/c1ccc(F)cc1)Nc1ccc(S(=O)(=O)N2CCOCC2)cc1
The “hERG current change (%, negative = inhibition) at 10uM” value of the first is lower: -7.67% for the first, 9% for the second.

Going from `O=C(c1ccco1)N1CCN(c2ncnc3scc(-c4ccccc4)c23)CC1` to `COc1ccc2cc(C(=O)N3CCN(c4ccccc4F)CC3)[nH]c2c1`, the “hERG current change (%, negative = inhibition) at 10uM” value rises from -64.5% to 13.6%.

Going from `Cc1ccc(-n2ncc(-c3nnc(SCC(=O)NC4CCCC4)o3)c2N)cc1C` to `COc1cccc(-c2nnc(NC(=O)C3CCCCC3)o2)c1`, the “hERG current change (%, negative = inhibition) at 10uM” value rises from -8.5% to -0.832%.

Going from `CC(C(=O)N1c2ccccc2Sc2ccccc21)n1nnc(-c2cccs2)n1` (stereo not drawn) to `O=C(NCC(c1cccnc1)N1CCN(c2ccccc2)CC1)OCc1ccccc1` (stereo not drawn), the “hERG current change (%, negative = inhibition) at 10uM” value falls from 4.01% to -45.9%.

Compared with `O=S(=O)(Cc1ccccc1Cl)NCc1ccccc1`, `Nc1c(NCc2ccccc2)c2ccccc2oc1=O` is lower in “hERG current change (%, negative = inhibition) at 10uM” value: 7.02% for the first, -3.8% for the second.

Compared with `CCc1noc(C)c1C(=O)OCC(=O)NCc1ccccc1OC`, `CCc1cccc(C)c1NC(=O)COC(=O)CNS(=O)(=O)/C=C/c1ccccc1` is higher in “hERG current change (%, negative = inhibition) at 10uM” value: 13.9% for the first, 14.6% for the second.

First: Cc1csc(NC(=O)C(C)Oc2ccc(Cl)cc2C)n1 (stereo not drawn)
Second: COc1ccc(CC(=O)Nc2nncs2)cc1OC
The “hERG current change (%, negative = inhibition) at 10uM” value of the first is lower: -21% for the first, 3.84% for the second.

Compared with `Cc1ccc(Cl)cc1NC(=S)N(CCCN1CCN(C)CC1)Cc1ccco1`, `CCN(CC)c1ccc(NC(=O)CN2CCN(S(=O)(=O)c3cc(Cl)ccc3OC)CC2)cc1` is higher in “hERG current change (%, negative = inhibition) at 10uM” value: -52.3% for the first, 10.1% for the second.

First: CCOC(=O)C(=O)c1c(-c2ccc(C)cc2)nc2ccccn12
Second: CCOC(=O)c1c(-c2ccc(C)cc2)csc1NC1=NS(=O)(=O)c2ccccc21
The “hERG current change (%, negative = inhibition) at 10uM” value of the first is higher: 2.21% for the first, -1.41% for the second.

Going from `Cc1ccc(NC(=O)COC(=O)Cn2cnc3ccccc32)c([N+](=O)[O-])c1` to `Cn1c(=O)c([N+](=O)[O-])c(NCCc2ccccc2)c2ccccc21`, the “hERG current change (%, negative = inhibition) at 10uM” value falls from 13.7% to -4.42%.

First: Cc1ccc(S(=O)(=O)N[C@@H](Cc2ccccc2)C(=O)N2CCC(C(=O)N[C@@H](CC(C)C)C(=O)O)CC2)cc1
Second: O=C(NC(Cc1ccccc1)C(=O)O)/C(=C\c1ccc(Br)cc1)NC(=O)c1ccc(Br)o1 (stereo not drawn)
The “hERG current change (%, negative = inhibition) at 10uM” value of the first is higher: 25.5% for the first, 13% for the second.

Compared with `Cc1cc(NC(=O)CCC(=O)N(c2cccc(F)c2)C(C(=O)NC2CCCC2)c2ccccc2)no1` (stereo not drawn), `Cc1ccc(C)c(NC2CCCCC2NS(=O)(=O)c2ccccc2)c1` (stereo not drawn) is lower in “hERG current change (%, negative = inhibition) at 10uM” value: 26.1% for the first, 12.9% for the second.

First: COc1ccc(NC(=O)c2sc(NC(=O)C3CC3)nc2C)cc1
Second: CCOC(=O)CSc1nnc(CNC(=O)c2ccc(OC)cc2)n1C1CCCCC1
The “hERG current change (%, negative = inhibition) at 10uM” value of the first is higher: 0.607% for the first, -8.07% for the second.

Going from `CSCCC(NC(=O)COc1ccccc1)C(=O)N1CCN(c2ccccc2F)CC1` (stereo not drawn) to `CCc1ccccc1OCC(=O)OCC(=O)N1CC(=O)Nc2ccccc21`, the “hERG current change (%, negative = inhibition) at 10uM” value rises from -43.4% to 19.4%.

Compared with `CC1C/C(=N\NC(N)=S)c2cc(Cl)ccc2S1` (stereo not drawn), `N#C/C(=C\c1ccc(F)c(Br)c1)C(=O)NC1CC1` is lower in “hERG current change (%, negative = inhibition) at 10uM” value: 7.32% for the first, -29.2% for the second.

Compared with `Cn1cccc1C(=O)NC(=O)COC(=O)CC12CC3CC(CC(C3)C1)C2`, `Cc1cc(C(=O)CCC(=O)N2CCN(S(=O)(=O)c3cccs3)CC2)c(C)s1` is lower in “hERG current change (%, negative = inhibition) at 10uM” value: 13.7% for the first, -34.7% for the second.

Compared with `c1cc2c3c(cccc3c1)NC1(CCCCC1)N2`, `CC1CC2(CCCCC2)Nc2c1ccc1ccccc21.Cl` (stereo not drawn) is lower in “hERG current change (%, negative = inhibition) at 10uM” value: 8.99% for the first, 5.87% for the second.

Compared with `CCOC(=O)C1CC(=O)c2cc(OC)c(OC)cc2C1` (stereo not drawn), `COc1cc(OC)c(/C=N/NC(=O)c2ccc([N+](=O)[O-])cc2)cc1Br` is higher in “hERG current change (%, negative = inhibition) at 10uM” value: 14.5% for the first, 15.4% for the second.

Going from `CCOC(=O)NC(=O)C(=CNNc1ncc(C(F)(F)F)cc1Cl)C(=O)NC(=O)OCC` to `Cc1cc(C(F)(F)F)nc(SCC(=O)Nc2nccs2)n1`, the “hERG current change (%, negative = inhibition) at 10uM” value falls from 15% to 11%.

Compared with `COc1ccc(-c2nc3ccccc3c(=O)[nH]2)cc1`, `COc1ccc(C2Nc3ccc4ccccc4c3-c3c2c(=O)oc2ccccc32)cc1` (stereo not drawn) is lower in “hERG current change (%, negative = inhibition) at 10uM” value: 9.31% for the first, 2.54% for the second.

Going from `O=C(O)c1cnn(-c2ccccc2)c1C(F)(F)F` to `O=C(NCCc1cn2ccccc2n1)c1ccccc1F`, the “hERG current change (%, negative = inhibition) at 10uM” value falls from 28.8% to 1.56%.

First: O=C(CN1CCN(Cc2ccccc2Cl)C1=O)NCc1ccccn1
Second: O=C(OCCN1C(=O)c2cccc3c(N4CCOCC4)ccc(c23)C1=O)c1ccccc1Cl
The “hERG current change (%, negative = inhibition) at 10uM” value of the first is higher: 17.4% for the first, 15.8% for the second.

First: O=C(Nc1ccccc1)C1C2/C=C\CCCCC21 (stereo not drawn)
Second: CN(Cc1ccccc1)C(=O)C1CCC(CNS(=O)(=O)c2cccc3cccnc23)CC1 (stereo not drawn)
The “hERG current change (%, negative = inhibition) at 10uM” value of the first is higher: 16.6% for the first, -25.8% for the second.

Compared with `C=C(C)C(=O)Nc1cccc(C2=NOC3(C2)C[C@@H](C(N)=O)N(C(=O)c2cc([N+](=O)[O-])cc([N+](=O)[O-])c2C)C3)c1` (stereo partly drawn), `COC(=O)c1cc(N=Cc2c(O)c3ccccc3oc2=O)cc(C(=O)OC)c1` is higher in “hERG current change (%, negative = inhibition) at 10uM” value: 1.96% for the first, 21.8% for the second.

Going from `Cc1cc(=O)[nH]c(SCC(=O)NCC2CCCO2)n1` (stereo not drawn) to `O=C(NCC1CCCO1)c1cnn2c(C(F)F)cc(C3CC3)nc12` (stereo not drawn), the “hERG current change (%, negative = inhibition) at 10uM” value falls from 6.76% to -2.7%.

First: CC1CN(C(=O)c2cc(-c3ccncc3)nc3ccccc23)CC(C)O1 (stereo not drawn)
Second: Cc1ccc(O)c(-c2cc3ccccc3[nH]2)c1
The “hERG current change (%, negative = inhibition) at 10uM” value of the first is higher: -8.43% for the first, -15.8% for the second.

Compared with `Cn1cccc1C1C(C#N)=C(N)OC2=C1C(=O)CCC2` (stereo not drawn), `COc1cc(C2Nc3ccc4ncccc4c3C3=C2C(=O)CCC3)cc(OC)c1OC` (stereo not drawn) is lower in “hERG current change (%, negative = inhibition) at 10uM” value: 14.6% for the first, -26.7% for the second.

Compared with `COCCNC(=O)c1cn(C(C)c2ccccc2F)nn1` (stereo not drawn), `CC(C)N(C)CCOC(=O)c1ccccc1Cl.Cl` is higher in “hERG current change (%, negative = inhibition) at 10uM” value: -1.84% for the first, 0.168% for the second.

Compared with `COc1cccc(/C=N/NC(=O)C(=O)NCc2ccco2)c1O`, `CCOc1ccc(NC(=O)c2cccc(NC(=O)c3ccccc3)c2)cc1` is lower in “hERG current change (%, negative = inhibition) at 10uM” value: 4.17% for the first, 2.31% for the second.

First: CC1=C(C#N)C(NC(=O)C(C)(C)C)(C(F)(F)F)C(=O)N1 (stereo not drawn)
Second: COc1cc(NC(=O)C2=CC(c3cccs3)=NS(=O)(=O)N2C)cc(OC)c1OC
The “hERG current change (%, negative = inhibition) at 10uM” value of the first is higher: 1.3% for the first, -1.96% for the second.

First: O=C1OC(OC(=O)c2ccccc2Br)C(N2CCOCC2)=C1Cl (stereo not drawn)
Second: CCCc1nnc(SCC(=O)N2CCOCC2)n1Cc1ccco1
The “hERG current change (%, negative = inhibition) at 10uM” value of the first is lower: -1.33% for the first, 7.39% for the second.

First: COc1nc(NCc2cccnc2)nc(NC2CCCCC2)n1
Second: CC1CCN(c2c(NCc3ccc(C(=O)NCc4cccnc4)cc3)c(=O)c2=O)CC1
The “hERG current change (%, negative = inhibition) at 10uM” value of the first is lower: -29.8% for the first, 2.62% for the second.

Compared with `Cc1ccc(S(=O)(=O)N(CCC(=O)O)Cc2ccc(Cl)cc2)cc1`, `COc1ccc(OCC(=O)O/N=C(\N)Cc2ccc(Cl)cc2)cc1` is lower in “hERG current change (%, negative = inhibition) at 10uM” value: 5.13% for the first, -1.67% for the second.

Compared with `COc1ccc(-c2c(C)oc3c(CN4CCN(CCO)CC4)c(O)ccc3c2=O)cc1OC`, `COc1cccc2cc(-c3cn4ccc(C)cc4n3)c(=O)oc12` is lower in “hERG current change (%, negative = inhibition) at 10uM” value: 21.9% for the first, 3.88% for the second.

Going from `COCCn1c(SCC(=O)NC2CCCCC2)nc2c(c1=O)SCC2` to `c1cnc2ccc(C(c3nnnn3C3CCCCC3)N3CCCCC3)cc2c1` (stereo not drawn), the “hERG current change (%, negative = inhibition) at 10uM” value falls from -11.2% to -15.6%.

Going from `CC(=O)ONC(=Nc1ccccc1)c1nonc1N` to `Cc1ccc(CSc2nn3c(=O)c(C)nnc3s2)cc1`, the “hERG current change (%, negative = inhibition) at 10uM” value falls from 15.5% to -13.9%.

Going from `O=[N+]([O-])c1ccc(COc2cccc(CNc3ccc(Br)cc3)c2)cc1` to `C=CCN(CC=C)C(=O)CN1C(=O)NC(C)(c2ccc3cc(OC)ccc3c2)C1=O` (stereo not drawn), the “hERG current change (%, negative = inhibition) at 10uM” value rises from -5.28% to 7.26%.

Going from `Cc1ccc(N(C(=O)Cn2nnc(-c3ccc(F)cc3)n2)C(CC(C)C)C(=O)NCC2CCCO2)cc1` (stereo not drawn) to `CCN(CC)CCCN=Cc1c(O)n(-c2ccc(C)cc2)c(=O)c2ccccc12`, the “hERG current change (%, negative = inhibition) at 10uM” value rises from -26.1% to -5.54%.

`CCCC(=O)N1CCN(c2nc3ccc(CC)cc3s2)CC1` was tested, and the “hERG current change (%, negative = inhibition) at 10uM” value was -23.4%.
